# Screen size: about 360,000 compounds; about 520 (0.14%) were called active. Inconclusive means that the source gave no clear call. Such entries were picked first, then a sample of the others. Calls follow the shape of the dose curve; as a rule, active = well fitted inhibition curve with a large enough effect; inconclusive = small, poorly fitted or top-dose-only effect; inactive = no such curve, though single readings can be large or run the other way. No potency is given beside an inconclusive call; the fits are too rough.
# Target: Rap guanine nucleotide exchange factor 3 (Homo sapiens) (UniProt O95398)
# Test: qHTS for Antagonist of cAMP-regulated guanine nucleotide exchange factor 3 (EPAC1): primary screen; also: nearly all actives have a fitted effect of over 50% in size;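 as to activity change, negative = inhibition: plate controls were vehicle for no effect and positive control for full effect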
# Conditions: EPAC1 GEF assay, Rap1b-BODIPY-GDP exchange fluorescence; activity change, negative = inhibition: at 115 µM (top of the series)
# Potency is read from the fitted curve at half-maximal effect; tags tell the direction and shape of the fitted curve.
# Chain of UniProt O95398 (O95398 whole entry, looked up): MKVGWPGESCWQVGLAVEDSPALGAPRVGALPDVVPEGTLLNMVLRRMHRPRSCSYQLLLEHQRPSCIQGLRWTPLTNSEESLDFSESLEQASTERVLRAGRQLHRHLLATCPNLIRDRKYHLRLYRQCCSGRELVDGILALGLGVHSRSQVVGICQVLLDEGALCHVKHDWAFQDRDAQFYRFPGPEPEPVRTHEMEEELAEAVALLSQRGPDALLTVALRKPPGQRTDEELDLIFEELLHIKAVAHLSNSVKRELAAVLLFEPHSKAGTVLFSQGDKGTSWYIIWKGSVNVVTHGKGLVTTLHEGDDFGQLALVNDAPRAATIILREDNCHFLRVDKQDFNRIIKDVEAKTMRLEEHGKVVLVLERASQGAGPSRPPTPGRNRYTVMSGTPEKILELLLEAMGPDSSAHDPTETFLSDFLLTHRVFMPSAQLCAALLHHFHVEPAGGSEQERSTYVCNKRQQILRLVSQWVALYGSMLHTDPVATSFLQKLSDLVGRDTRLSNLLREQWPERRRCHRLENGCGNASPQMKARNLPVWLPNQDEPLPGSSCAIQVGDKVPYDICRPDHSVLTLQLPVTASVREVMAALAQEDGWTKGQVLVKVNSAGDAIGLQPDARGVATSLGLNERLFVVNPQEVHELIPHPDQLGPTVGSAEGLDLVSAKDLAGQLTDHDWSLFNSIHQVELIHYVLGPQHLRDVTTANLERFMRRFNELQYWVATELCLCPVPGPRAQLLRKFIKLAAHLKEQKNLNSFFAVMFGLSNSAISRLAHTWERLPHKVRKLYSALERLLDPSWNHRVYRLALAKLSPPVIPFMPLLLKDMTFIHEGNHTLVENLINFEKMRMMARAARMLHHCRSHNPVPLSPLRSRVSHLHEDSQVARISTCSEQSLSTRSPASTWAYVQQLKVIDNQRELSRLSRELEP
SMILES,Potency,"activity change, negative = inhibition"
O=C(CSC1=NS(=O)(=O)c2cc(Cl)ccc2N1)Nc1ccccc1F,"inconclusive [inhibitor, single point]",
Cc1nn(Cc2ccccc2)c(Cl)c1C(=O)OCC(=O)NC(=O)NC12CC3CC(CC(C3)C1)C2,"inconclusive [inhibitor, partial curve]",
O=C(N/N=C/c1ccccc1O)c1ccc2c(c1)OCO2,"inconclusive [inhibitor, partial curve]",
Cc1ccc(NC(=O)c2cccs2)cc1S(=O)(=O)Nc1cccc(Cl)c1,"inconclusive [inhibitor, partial curve, poor fit]",
Cc1n[nH]c(C)c1CCC(=O)N/N=C/C=C/c1ccccc1,"inconclusive [inhibitor, full curve, poor fit]",
CCSC1=C(C#N)C(c2cccs2)C(C(=O)OC)=C(C)N1 (stereo not drawn),,inactive: -23.3%
O=S(=O)(Cc1ccccc1)N1CCC(c2nc(-c3cccs3)no2)CC1,,inactive: 4.22%
CCOc1cccc2cc(C(=O)NCc3ccc(C)cc3)c(=N)oc12,,inactive: 12%
Cc1ccc(S(=O)(=O)NCCC(=O)NC2CC2)cc1,"inconclusive [inhibitor, single point]",
CCN(CC)CCNC(=O)C1CCC(=O)N1CCc1ccccc1 (stereo not drawn),,inconclusive: -16.3% [inhibitor]
CCOC(=O)c1cn[nH]c1NC(=S)Nc1ccc(Cl)cc1,"inconclusive [inhibitor, partial curve]",
Cc1sc2ncn(CC(=O)NCC3COc4ccccc4O3)c(=O)c2c1S(=O)(=O)N1CCCCC1 (stereo not drawn),"inconclusive [inhibitor, partial curve]",
CC(=O)Nc1ccc(S(=O)(=O)N2CCC(C(=O)NCCc3ccc(Cl)cc3)CC2)cc1,"inconclusive [inhibitor, single point]",
Cc1ccc(-n2c(SCC(=O)NCCN3C(=O)CSC3=O)nnc2-c2cccc(C)c2)cc1,,inconclusive: -9.67% [inhibitor]
COc1ccc(N2C(=O)/C(=C/c3cccs3)NC2=S)cc1,,inactive: -1.03%
COc1ccc(-c2nnc(SCC(=O)NC(C)c3ccccc3)o2)cc1 (stereo not drawn),"inconclusive [inhibitor, partial curve, poor fit]",
COCCNc1nc2cc(-c3cccc(Cl)c3)sc2c(=O)n1C,,inactive: -2.04%
Cc1ccc(O)c(C(=O)CC(=O)c2ccccc2Cl)c1,"inconclusive [inhibitor, partial curve]",
Cc1cc(N2CCOCC2)ccc1/C=C1\NC(=O)N(Cc2ccccc2F)C1=O,"inconclusive [inhibitor, single point]",
CCOc1ccc(N(CC(=O)Nc2cccc(F)c2)S(=O)(=O)c2c(C)noc2C)cc1,"inconclusive [inhibitor, single point]",
COC(=O)[C@]12CCCCC=C1N(Cc1ccc3c(c1)OCO3)C(=O)[C@H](CC(=O)NCC13CC4CC(CC(C4)C1)C3)C2,,inactive: -11%
Cc1ccc2occ(/C=N/NC(=O)c3ccccc3C)c(=O)c2c1,"inconclusive [inhibitor, single point]",

SMILES,Potency,"activity change, negative = inhibition"
CN(c1ccc(Cl)cc1)c1cc(=O)n(C)c2ccccc12,,inactive: 6.54%
CCN1C(=O)/C(=C2\Sc3ccccc3N2CC)OC1=S,"inconclusive [inhibitor, full curve, poor fit]",
CN(C)/C=C/c1onc(-c2c(Cl)cccc2Cl)c1C#N,"inconclusive [inhibitor, single point]",
Clc1ccc(C2=NNC(=NCC3CCCO3)SC2)cc1 (stereo not drawn),,inactive: -9.88%
CCCCC(=O)Nc1ccc(C(=O)NNC(=O)c2ccc(C)c(Br)c2)cc1,,inactive: -20.6%
COc1cc(C(C)=O)ccc1OCC(O)CN1CCN(c2ccc(F)cc2)CC1 (stereo not drawn),,inactive: -7.8%
O=C1C(=O)N(Cc2cccs2)c2ccccc21,"inconclusive [inhibitor, partial curve]",
O=C(Nc1cccnc1)C1Cc2c(-c3ccc4c(c3)OCO4)ccnc2O1 (stereo not drawn),"inconclusive [inhibitor, single point]",
COc1ccc(N(C(=O)c2snc(C(N)=O)c2N)C(C(=O)NC2CCCC2)c2cccs2)c(OC)c1 (stereo not drawn),"inconclusive [inhibitor, full curve]",
Cc1ccc(-c2cc(C(=O)Nc3ccccn3)c3ccccc3n2)o1,"inconclusive [inhibitor, single point]",
O=C(Nc1cccc(C(=O)Nc2ccccc2C(=O)O)c1)c1cccc(Cl)c1,"inconclusive [inhibitor, single point]",
O=C(COc1ccc(Cl)cc1)NC1=NN(c2ccccc2)C(=O)C1,"inconclusive [inhibitor, single point]",
O=C(NCCNc1ccc([N+](=O)[O-])cc1C(F)(F)F)c1ccc(F)cc1,"inconclusive [inhibitor, single point]",
CCOC(=O)C1(Cc2ccccc2)CCN(Cc2cccc3c2OCO3)CC1,,inconclusive: -14.5% [inhibitor]
COc1ccc(C2N(c3ccccc3)CCN2c2ccccc2)cc1O,"inconclusive [inhibitor, full curve, poor fit]",
Cc1ccc(S(=O)(=O)N2CCc3cc4c(cc3C2C)OCCCO4)cc1 (stereo not drawn),"inconclusive [inhibitor, full curve]",
COc1ccc(NS(=O)(=O)c2cccc(C(=O)NN=C(C)c3ccco3)c2)cc1,"inconclusive [inhibitor, partial curve]",
COc1ccc(C(=O)Nc2oc(-c3ccccc3)c(-c3ccccc3)c2C#N)cc1OC,"inconclusive [inhibitor, single point]",
CC(C)(C)C(=O)Nc1ccc(NC(=O)C(C)(C)C)cc1,"inconclusive [inhibitor, full curve]",
Cc1ccc(-c2nnc(Nc3ccc4c(c3)nc(C)n4C)c3ccccc23)cc1,"inconclusive [inhibitor, partial curve, poor fit]",
CC(=O)c1cccc(Nc2nc3ccccc3n3cnnc23)c1,"inconclusive [inhibitor, partial curve]",

# From PubChem BioAssay AID720709 (National Center for Advancing Translational Sciences (NCATS), 2013)
